Reference: the supplement of paper PMC3334620
The full ranking holds about 33,000 sequences; the median of “E-score (-0.5 to 0.5)” is about -0.054, and the highest 2% start at about 0.35. The list shows a part of the results.

molecular target: T1, Stb5 (UniProt P38699); experiment: PBM E-score (8-mer binding enrichment) (E-score (-0.5 to 0.5)); higher = stronger / more preferred TF binding; most listed sequences are background and not binding sites; settings: protein concentration: 200 nM; construct: GST-full length
T1 sequence: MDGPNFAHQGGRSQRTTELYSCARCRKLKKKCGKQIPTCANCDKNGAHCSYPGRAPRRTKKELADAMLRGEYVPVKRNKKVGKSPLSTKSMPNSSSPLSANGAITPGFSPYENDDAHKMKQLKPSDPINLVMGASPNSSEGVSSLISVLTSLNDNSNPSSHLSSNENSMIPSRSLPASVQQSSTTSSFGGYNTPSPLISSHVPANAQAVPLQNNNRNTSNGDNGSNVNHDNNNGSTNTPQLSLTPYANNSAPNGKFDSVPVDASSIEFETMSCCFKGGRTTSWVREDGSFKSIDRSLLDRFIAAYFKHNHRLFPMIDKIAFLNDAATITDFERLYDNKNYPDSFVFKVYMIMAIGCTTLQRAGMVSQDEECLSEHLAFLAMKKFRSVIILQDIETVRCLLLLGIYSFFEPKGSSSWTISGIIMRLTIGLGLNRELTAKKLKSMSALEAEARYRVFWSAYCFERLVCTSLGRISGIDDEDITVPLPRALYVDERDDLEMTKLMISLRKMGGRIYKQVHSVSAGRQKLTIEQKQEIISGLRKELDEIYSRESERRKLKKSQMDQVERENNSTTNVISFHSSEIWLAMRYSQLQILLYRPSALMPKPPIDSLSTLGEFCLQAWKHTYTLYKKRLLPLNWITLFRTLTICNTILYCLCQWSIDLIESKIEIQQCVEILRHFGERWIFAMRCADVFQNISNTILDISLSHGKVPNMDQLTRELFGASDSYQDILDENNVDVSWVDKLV
Summary of the method: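 For each ungapped eight-base word taken together with its reverse complement, the Universal PBM Analysis Suite assigned an E-score. Binding data came from GST-tagged yeast transcription factors, applied at about 100-200 nM, on universal all-10-mer Agilent arrays made double-stranded by primer extension. Fluorescent anti-GST marked bound protein, and scans were normalised with masliner.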

| Sequence | PBM E-score |
| --- | --- |
| ACCGTTAC | 0.175 |
| GACGCCTC | -0.322 |
| GGGAATTA | 0.164 |
| CACTCTAA | -0.149 |
| CATTATAG | 0.111 |
| GCAGTTAC | 0.116 |
| CGAATGAC | -0.0769 |
| GTAAAGAA | 0.0288 |
| CATTTAAG | -0.28 |
| CGTAGCTC | 0.0462 |
| AAGAAGGC | -0.14 |
| GGCAGGAC | 0.0272 |
| GAACGACA | -0.144 |
| GCCTCCCA | 0.0019 |
| CATAATGC | 0.208 |
| CACTGTAC | -0.252 |
| ACGTTGCT | -0.127 |
| AGTTTTTG | -0.201 |
| GATTTACA | 0.0286 |
| GCACCGAC | 0.45 |
| CACTACGA | -0.07 |
| GAAGCTGA | -0.126 |
| AGATAACG | 0.201 |
| GGATTAGA | -0.0685 |
| GTCATAAC | 0.0967 |

| Sequence | PBM E-score |
| --- | --- |
| CCGGTTTA | 0.216 |
| AGGCCAGA | -0.148 |
| CATTTAAA | 0.176 |
| CCACCGGG | 0.26 |
| GAATCATA | -0.18 |
| AAAAGTGC | 0.101 |
| CATCACTA | -0.202 |
| CCCCGACG | 0.449 |
| CATAGCAC | 0.163 |
| AACATGTG | -0.0988 |
| CGGTGACA | 0.42 |
| CTAAACAG | -0.102 |
| AACCCGCG | 0.231 |
| CTAAAGAG | -0.105 |
| CTAGACGC | -0.0118 |
| CGTTACCA | -0.112 |
| CTTATTTC | 0.0536 |
| ATTACTTA | -0.0191 |
| CCGTACCA | 0.171 |
| CAAAAGGG | -0.205 |
| TCTGCTCA | -0.183 |
| CGCCTTAC | 0.0363 |
| GAAAAGAC | 0.148 |
| GACAAATC | -0.0429 |
| CTAAGACA | 0.0369 |

| Sequence | PBM E-score |
| --- | --- |
| CCGGTTTC | 0.161 |
| GAAAAAAA | 0.0586 |
| AGGCCCTG | -0.111 |
| CGCGCTGA | 0.173 |
| AGCAGTCC | -0.136 |
| GACATTCA | 0.0858 |
| TTACTGAA | -0.0992 |
| CCGTATGA | 0.222 |
| GTACACGA | -0.148 |
| ATAGATAC | -0.144 |
| CCGAATTC | 0.2 |
| GGTAATTA | 0.185 |
| GACATGAC | -0.0655 |
| CGACGGCA | 0.299 |
| AAGCTCTA | -0.16 |
| ATCACGGG | 0.125 |
| CGCTGGAA | -0.0318 |
| GGAAGTAA | 0.203 |
| CATTCCCC | 0.15 |
| CGGTTTTA | 0.41 |
| ACCATGTC | 0.0446 |
| CTGCTATA | 0.0793 |
| GCGTGACA | -0.0462 |
| CCTAAGCA | -0.137 |
| GCGCTGCC | -0.0367 |

| Sequence | PBM E-score |
| --- | --- |
| GAAATGCA | -0.0931 |
| CAATCGAG | -0.21 |
| AACTCGCT | -0.0283 |
| TACGATAA | -0.14 |
| CAAATTTC | -0.303 |
| GACCACTC | -0.174 |
| AGCTCGCA | -0.16 |
| AGCATCAT | -0.328 |
| ACATACCG | 0.28 |
| CTCGCGAA | -0.165 |
| GCCTGATA | -0.0578 |
| AAAGGAAG | 0.0433 |
| GTACCTCA | -0.226 |
| CTAGGCAC | -0.109 |
| GTGGAGGA | -0.0194 |
| CTGACTGC | -0.21 |
| GGAAATTA | 0.0778 |
| CTCAGTCA | -0.3 |
| AGCTGGTA | -0.195 |
| GACACGCC | 0.0789 |
| TACTCAGA | -0.0731 |
| ACATCGAT | -0.171 |
| ATTAGAGC | 0.0887 |
| ACTAAGGA | -0.19 |
| CGGATAGC | -0.0155 |

| Sequence | PBM E-score |
| --- | --- |
| TCGCCCGA | -0.00426 |
| GATTTGAA | -0.132 |
| CCGTCAAA | 0.237 |
| ACAGTCTG | -0.226 |
| GAGAGCCC | -0.0648 |
| GAGCCAGA | -0.181 |
| GTAACGAC | 0.132 |
| CATTCTTC | -0.247 |
| TACCAAAA | -0.154 |
| AGATACGA | -0.144 |
| ATGGGCTG | -0.309 |
| CACTAGCA | -0.0502 |
| CGAATGGC | 0.0449 |
| TCGGCCAA | 0.00822 |
| CAGGGACG | -0.127 |
| TCGTGCCA | -0.205 |
| CGAACCGA | 0.137 |
| AGTGGCGG | 0.292 |
| TAGCTCCA | 0.101 |
| CAGCCCAA | -0.168 |
| GGCCACGA | 0.111 |
| CCCACTGC | -0.0061 |
| CCACTTTC | -0.205 |
| AATCACCA | -0.0307 |
| ACAGGCCC | -0.175 |

| Sequence | PBM E-score |
| --- | --- |
| AACTAAAT | -0.177 |
| GTGAGCCA | -0.193 |
| CAATGGAA | 0.0674 |
| ATAAATAA | 0.109 |
| ATAAGTAA | 0.0773 |
| CCTCTTCA | -0.0873 |
| CCGTGAAA | -0.00057 |
| CTTTACTA | 0.0783 |
| CGGGATCC | 0.195 |
| ACGGTTTG | 0.0489 |
| AACTTGCA | -0.228 |
| GCCCCTGA | -0.155 |
| AGCGTGGG | -0.271 |
| AATTAGCC | -0.0645 |
| AGATTATG | 0.0753 |
| CCATCCCC | 0.0121 |
| ACATCATA | -0.0465 |
| CACATGCG | -0.0615 |
| CTCTTAGA | 0.0208 |
| AGAAAAAC | 0.00925 |
| TCGTCACA | -0.138 |
| ATTACGAG | -0.196 |
| CCGGTCCC | 0.308 |
| AACCTACG | -0.144 |
| CAATATGG | 0.016 |

| Sequence | PBM E-score |
| --- | --- |
| CTCGACAA | -0.2 |
| GTTTTGGA | 0.0205 |
| ACCCGTGG | 0.0263 |
| ATCGATAA | -0.139 |
| ATCCTTAC | -0.12 |
| ATAGATGA | -0.00332 |
| CAGAGCCA | -0.355 |
| CGGGCAAA | 0.283 |
| AGGCTTTA | -0.0205 |
| ACACGGAA | 0.00647 |
| AGCATCGG | 0.214 |
| CGTTAGCA | 0.0642 |
| GGTTTCCA | 0.0443 |
| GACGAAAA | 0.0682 |
| AGCCGGCT | 0.213 |
| CTTAGCCC | 0.214 |
| AGGATCTG | -0.3 |
| AGTTAGTA | -0.0553 |
| ACTGCTAC | -0.11 |
| GTTGTTAA | 0.0384 |
| GCTATAAA | 0.168 |
| CTTAGCAC | 0.0775 |
